# Reference: the supplement of paper PMC8728848
# This is one part of the list.
# Tests used:
# Assay in all cases: glycan array binding signal (z-score within array); higher = stronger binding
# Conditions in all cases: glycan notation: IUPAC condensed, linker removed
# Glc(b1-4)Glc(b1-3)Glc = target: Glc(b1-4)Glc(b1-3)Glc
# Method in brief: (§1)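 Arrays were curated from the Consortium for Functional Glycomics database, 3228 in total, and kept only where the protein sequence was available. Binding is expressed as a within-array Z-score. This score was averaged across arrays of the same protein sequence at different concentrations or buffers and across linkers, and negative values can be read as non-binding.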
# [1] = target: Glc(b1-4)Glc(b1-3)Glc(b1-4)Glc
# Method in brief: as §1
# Glc(b1-4)Glc(b1-4)Glc = target: Glc(b1-4)Glc(b1-4)Glc
# Method in brief: as §1
# [2] = target: Glc(b1-4)Glc(b1-4)Glc(b1-3)Glc
# Method in brief: as §1
# [3] = target: Glc(b1-4)Glc(b1-4)Glc(b1-3)Glc(b1-4)Glc(b1-4)Glc(b1-3)Glc
# Method in brief: as §1
# [4] = target: Glc(b1-4)Glc(b1-4)Glc(b1-4)Glc
# Method in brief: as §1
# [5] = target: Glc(b1-4)Glc(b1-4)Glc(b1-4)Glc(b1-3)Glc
# Method in brief: as §1
# [6] = target: Glc(b1-4)Glc(b1-4)Glc(b1-4)Glc(b1-4)Glc
# Method in brief: as §1
# [7] = target: Glc(b1-4)Glc(b1-4)Glc(b1-4)Glc(b1-4)Glc(b1-4)Glc
# Method in brief: as §1
# [8] = target: Glc(b1-4)Glc(b1-4)Glc(b1-4)Glc(b1-4)Glc(b1-4)Glc(b1-4)Glc
# Method in brief: as §1
# [9] = target: Glc(b1-4)Glc(b1-4)Glc(b1-4)Glc(b1-4)Glc(b1-4)Glc(b1-4)Glc(b1-4)Glc
# Method in brief: as §1
# [10] = target: Glc(b1-4)Glc(b1-4)Glc(b1-4)Glc(b1-4)Glc(b1-4)Glc(b1-4)Glc(b1-4)Glc(b1-4)Glc
# Method in brief: as §1
# [11] = target: Glc(b1-4)Glc(b1-4)Glc(b1-4)Glc(b1-4)Glc(b1-4)Glc(b1-4)Glc(b1-4)Glc(b1-4)Glc(b1-4)Glc
# Method in brief: as §1
# [12] = target: Glc(b1-4)Glc(b1-4)Glc(b1-4)Glc(b1-4)Glc(b1-4)Glc(b1-4)Glc(b1-4)Glc(b1-4)Glc(b1-4)Glc(b1-4)Glc
# Method in brief: as §1
# [13] = target: Glc(b1-4)Glc(b1-4)Glc(b1-4)Glc(b1-4)Glc(b1-4)Glc(b1-4)Glc(b1-4)Glc(b1-4)Glc(b1-4)Glc(b1-4)Glc(b1-4)Glc
# Method in brief: as §1
# [14] = target: Glc(b1-4)Glc(b1-4)Glc(b1-4)Glc(b1-4)Glc(b1-4)Glc(b1-4)Glc(b1-4)Glc(b1-4)Glc(b1-4)Glc(b1-4)Glc(b1-4)Glc(b1-4)Glc
# Method in brief: as §1
# Glc(b1-6)Glc = target: Glc(b1-6)Glc
# Method in brief: as §1
# Glc(b1-6)Glc(b1-6)Glc = target: Glc(b1-6)Glc(b1-6)Glc
# Method in brief: as §1
# [15] = target: Glc(b1-6)Glc(b1-6)Glc(b1-6)Glc
# Method in brief: as §1
# [16] = target: Glc(b1-6)Glc(b1-6)Glc(b1-6)Glc(b1-6)Glc
# Method in brief: as §1
# [17] = target: Glc(b1-6)Glc(b1-6)Glc(b1-6)Glc(b1-6)Glc(b1-6)Glc
# Method in brief: as §1
# [18] = target: Glc(b1-6)Glc(b1-6)Glc(b1-6)Glc(b1-6)Glc(b1-6)Glc(b1-6)Glc
# Method in brief: as §1
# [19] = target: Glc(b1-6)Glc(b1-6)Glc(b1-6)Glc(b1-6)Glc(b1-6)Glc(b1-6)Glc(b1-6)Glc
# Method in brief: as §1
# [20] = target: Glc(b1-6)Glc(b1-6)Glc(b1-6)Glc(b1-6)Glc(b1-6)Glc(b1-6)Glc(b1-6)Glc(b1-6)Glc
# Method in brief: as §1
# [21] = target: Glc(b1-6)Glc(b1-6)Glc(b1-6)Glc(b1-6)Glc(b1-6)Glc(b1-6)Glc(b1-6)Glc(b1-6)Glc(b1-6)Glc
# Method in brief: as §1
# [22] = target: Glc(b1-6)Glc(b1-6)Glc(b1-6)Glc(b1-6)Glc(b1-6)Glc(b1-6)Glc(b1-6)Glc(b1-6)Glc(b1-6)Glc(b1-6)Glc
# Method in brief: as §1
# [23] = target: Glc(b1-6)Glc(b1-6)Glc(b1-6)Glc(b1-6)Glc(b1-6)Glc(b1-6)Glc(b1-6)Glc(b1-6)Glc(b1-6)Glc(b1-6)Glc(b1-6)Glc
# Method in brief: as §1
# [24] = target: Glc(b1-6)Glc(b1-6)Glc(b1-6)Glc(b1-6)Glc(b1-6)Glc(b1-6)Glc(b1-6)Glc(b1-6)Glc(b1-6)Glc(b1-6)Glc(b1-6)Glc(b1-6)Glc
# Method in brief: as §1
# GlcA(b1-3)Gal = target: GlcA(b1-3)Gal
# Method in brief: as §1
# [25] = target: GlcA(b1-3)Gal(b1-3)GlcNAc
# Method in brief: as §1
# [26] = target: GlcA(b1-3)Gal(b1-4)GlcNAc(b1-3)Gal(b1-4)Glc
# Method in brief: as §1
# [27] = target: GlcA(b1-3)Gal(b1-4)GlcNAc(b1-3)Gal(b1-4)GlcNAc(b1-3)Gal(b1-4)Glc
# Method in brief: as §1
# [28] = target: GlcA(b1-3)GlcNAc(b1-4)GlcA(b1-3)GlcNAc
# Method in brief: as §1
# [29] = target: GlcA(b1-3)GlcNAc(b1-4)GlcA(b1-3)GlcNAc(b1-4)GlcA(b1-3)GlcNAc(b1-4)GlcA(b1-3)GlcNAc(b1-4)GlcA(b1-3)GlcNAc(b1-4)GlcA(b1-3)GlcNAc(b1-4)GlcA(b1-3)GlcNAc
# Method in brief: as §1
# GlcA3S(b1-3)Gal = target: GlcA3S(b1-3)Gal
# Method in brief: as §1
# [30] = target: GlcA3S(b1-3)Gal(b1-4)GlcNAc(b1-3)Gal(b1-4)Glc
# Method in brief: as §1
# [31] = target: GlcA3S(b1-3)Gal(b1-4)GlcNAc(b1-3)Gal(b1-4)GlcNAc(b1-3)Gal(b1-4)Glc
# Method in brief: as §1
# GlcNAc(a1-4)Gal = target: GlcNAc(a1-4)Gal
# Method in brief: as §1
# [32] = target: GlcNAc(a1-4)Gal(b1-3)[Fuc(a1-2)]Gal
# Method in brief: as §1
# [33] = target: GlcNAc(b1-2)Man(a1-3)[GlcNAc(b1-2)Man(a1-6)]Man(b1-4)GlcNAc(b1-4)GlcNAc
# Method in brief: as §1
# [34] = target: GlcNAc(b1-2)Man(a1-3)[GlcNAc(b1-2)Man(a1-6)]Man(b1-4)GlcNAc(b1-4)[Fuc(a1-6)]GlcNAc
# Method in brief: as §1
# [35] = target: GlcNAc(b1-2)Man(a1-3)[GlcNAc(b1-2)Man(a1-6)][GlcNAc(b1-4)]Man(b1-4)GlcNAc(b1-4)GlcNAc
# Method in brief: as §1
# [36] = target: GlcNAc(b1-2)Man(a1-3)[Man(a1-3)[Man(a1-6)]Man(a1-6)][GlcNAc(b1-4)]Man(b1-4)GlcNAc(b1-4)GlcNAc
# Method in brief: as §1
# [37] = target: GlcNAc(b1-2)[GlcNAc(b1-4)]Man(a1-3)[GlcNAc(b1-2)Man(a1-6)][GlcNAc(b1-4)]Man(b1-4)GlcNAc(b1-4)GlcNAc
# Method in brief: as §1
# [38] = target: GlcNAc(b1-2)[GlcNAc(b1-4)]Man(a1-3)[GlcNAc(b1-2)[GlcNAc(b1-4)][GlcNAc(b1-6)]Man(a1-6)][GlcNAc(b1-4)]Man(b1-4)GlcNAc(b1-4)GlcNAc
# Method in brief: as §1
binder,measurement,setting,value
"Dectin-1 (Mus musculus), Q6QLQ4 (protein) GHNSGRNPEEKDNFLSRNKENHKPTESSLDEKVAPSKASQTTGGFSQPCLPNWIMHGKSCYLFSFSGNSWYGSKRHCSQLGAHLLKIDNSKEFEFIESQTSSHRINAFWIGLSRNQSEGPWFWEDGSAFFPNSFQVRNTAPQESLLHNCVWIHGSEVYNQICNTSSYSICEKEL",glycan array binding signal (z-score),Glc(b1-4)Glc(b1-3)Glc,-0.135
same,glycan array binding signal (z-score),[1],-0.135
same,glycan array binding signal (z-score),Glc(b1-4)Glc(b1-4)Glc,-0.135
same,glycan array binding signal (z-score),[2],-0.011
same,glycan array binding signal (z-score),[3],-0.135
same,glycan array binding signal (z-score),[4],-0.135
same,glycan array binding signal (z-score),[5],-0.135
same,glycan array binding signal (z-score),[6],-0.068
same,glycan array binding signal (z-score),[7],-0.135
same,glycan array binding signal (z-score),[8],-0.135
same,glycan array binding signal (z-score),[9],-0.135
same,glycan array binding signal (z-score),[10],-0.135
same,glycan array binding signal (z-score),[11],-0.135
same,glycan array binding signal (z-score),[12],0.216
same,glycan array binding signal (z-score),[13],-0.135
same,glycan array binding signal (z-score),[14],-0.135
same,glycan array binding signal (z-score),Glc(b1-6)Glc,-0.135
same,glycan array binding signal (z-score),Glc(b1-6)Glc(b1-6)Glc,-0.135
same,glycan array binding signal (z-score),[15],-0.135
same,glycan array binding signal (z-score),[16],-0.135
same,glycan array binding signal (z-score),[17],-0.135
same,glycan array binding signal (z-score),[18],-0.089
same,glycan array binding signal (z-score),[19],-0.135
same,glycan array binding signal (z-score),[20],-0.135
same,glycan array binding signal (z-score),[21],-0.113
same,glycan array binding signal (z-score),[22],-0.104
same,glycan array binding signal (z-score),[23],-0.135
same,glycan array binding signal (z-score),[24],-0.078
same,glycan array binding signal (z-score),GlcA(b1-3)Gal,-0.06
same,glycan array binding signal (z-score),[25],-0.091
same,glycan array binding signal (z-score),[26],-0.021
same,glycan array binding signal (z-score),[27],-0.049
same,glycan array binding signal (z-score),[28],-0.037
same,glycan array binding signal (z-score),[29],-0.012
same,glycan array binding signal (z-score),GlcA3S(b1-3)Gal,-0.085
same,glycan array binding signal (z-score),[30],-0.078
same,glycan array binding signal (z-score),[31],-0.062
same,glycan array binding signal (z-score),GlcNAc(a1-4)Gal,-0.088
same,glycan array binding signal (z-score),[32],-0.091
same,glycan array binding signal (z-score),[33],-0.091
same,glycan array binding signal (z-score),[34],-0.05
same,glycan array binding signal (z-score),[35],-0.091
same,glycan array binding signal (z-score),[36],-0.091
same,glycan array binding signal (z-score),[37],-0.07
same,glycan array binding signal (z-score),[38],-0.091
